# From PubChem BioAssay (NCI)
#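 1) Cells in 96-well plates. 2) Compound, 48 h, 5 concentrations. 3) Linear interpolation between surrounding doses. 4) Unreached endpoint = highest concentration. Abbreviation: GI50, concentration required for 50% inhibition of growth. TGI is the concentration that stops growth completely.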
# Test system: NCI-H322M lung
# Assay: growth of human tumour cells (NCI), 48 h
SMILES,GI50,TGI
COc1ccc2ncc(C#Cc3cncc(C(=O)Nc4ccc(CN5CCN(C)CC5)c(C(F)(F)F)c4)c3)n2n1,2.7 µM,> 28.3 µM
COc1sc(/C=N/NC(=O)c2[nH]c3ccc(Br)cc3c2-c2ccccc2)cc1Br,4.81 µM,> 100 µM
COc1ccc(S(=O)(=O)Nc2ccc(-c3ccc4c(c3)NC(=O)/C4=C\c3ccc[nH]3)cc2)cc1OC,1.67 µM,31.1 µM
COc1ccccc1NC(=O)N/N=C/c1c[nH]c2ccccc12,7.04 µM,21.2 µM
O=C(NN1C(=O)/C(=C/C=C/c2ccc([N+](=O)[O-])o2)SC1=S)c1cccc(O)c1,5.02 µM,17.8 µM
Fc1ccc(N2CC(Cn3c(C(F)(F)F)cc4c(Cl)ncnc43)C2)c(F)c1,10.8 µM,22.7 µM
